# Measured values published in PubChem BioAssay AID1768 (National Center for Advancing Translational Sciences (NCATS), 2009).
# In all, about 270,000 compounds went through this assay and about 620 (0.23%) were called active. The shares of active, inactive and inconclusive entries below differ from those in the screen. Calls come from the whole dose curve; as a rule, active = well fitted inhibition curve with a large enough effect in the polarisation, with a control signal flat (not every such curve was filed as active); inconclusive = small, poorly fitted or top-dose-only effect, or effect the other way, or a change in a side signal; inactive = no such curve, though single readings can be large or run the other way; the % refers to the polarisation. Potencies of inconclusive entries are doubtful fits and often do not repeat. “Side channel” marks fits to a control or component signal instead of the main read-out.
# Target: Menin (Homo sapiens) (UniProt O00255)
# Assay: qHTS Assay for Inhibitors Targeting the Menin-MLL Interaction in MLL Related Leukemias: Competition With Texas Red Labeled MLL-derived Mutant Peptide; for FP activity change, negative = inhibition: % of control where 0% means no effect
# Settings: fluorescence polarization; FP activity change, negative = inhibition: at 61.6 µM (top of the series)
# Potency is the fitted concentration of half-maximal effect; tags give direction and shape of the fitted curve or compound fluorescence and quenching.
# UniProt O00255, sequence (O00255 whole entry, looked up): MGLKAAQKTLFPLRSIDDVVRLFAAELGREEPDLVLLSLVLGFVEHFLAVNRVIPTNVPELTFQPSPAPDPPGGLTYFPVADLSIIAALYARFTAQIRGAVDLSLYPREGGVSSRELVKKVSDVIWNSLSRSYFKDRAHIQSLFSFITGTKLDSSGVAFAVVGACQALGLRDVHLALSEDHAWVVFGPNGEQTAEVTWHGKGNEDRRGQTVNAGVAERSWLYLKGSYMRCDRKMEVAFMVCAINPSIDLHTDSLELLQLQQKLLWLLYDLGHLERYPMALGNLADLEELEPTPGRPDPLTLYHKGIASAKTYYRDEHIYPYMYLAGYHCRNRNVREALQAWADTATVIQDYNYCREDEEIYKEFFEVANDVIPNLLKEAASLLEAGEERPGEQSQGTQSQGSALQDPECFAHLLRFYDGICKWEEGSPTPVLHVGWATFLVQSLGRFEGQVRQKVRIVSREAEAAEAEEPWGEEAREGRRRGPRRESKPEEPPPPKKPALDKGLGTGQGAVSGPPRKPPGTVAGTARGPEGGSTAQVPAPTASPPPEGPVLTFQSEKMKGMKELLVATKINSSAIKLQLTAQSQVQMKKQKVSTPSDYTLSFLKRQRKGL
SMILES,Potency,"FP activity change, negative = inhibition"
O=C(Nc1ncccc1Cl)C(Sc1ccccc1)c1ccccc1 (configuration not stated),"inconclusive: 35.5 µM [quencher, side channel, single point]",–
Cc1ccccc1Cn1ccc(-c2ccc(Cl)cc2)c(C#N)c1=O,"inconclusive: 39.8 µM [fluorescent, side channel, single point]",–
COc1ccc(-c2nnc(SCC(=O)NC(=O)NCc3ccco3)o2)cc1,"inconclusive: 35.5 µM [inhibitor, partial curve]",–
Cc1ccc(-n2ncc3c(N4CCCC4)ncnc32)c(C)c1,–,inactive: -16.4%
O=c1c(CCc2ccccc2)nc2cnc(Nc3ccccc3)nc2n1Cc1cccs1,"inconclusive: 35.5 µM [fluorescent, side channel, single point]",–
Cc1cc(N2CCOCC2)ccc1/C=C1/SC(=O)NC1=O,"inconclusive: 25.1 µM [quencher, side channel, single point]",–
NC(=O)CSc1oc(-c2ccco2)nc1S(=O)(=O)c1ccc(F)cc1,"inconclusive: 6.31 µM [inhibitor, single point]",–
COc1cccc(/C=C2\SC(=S)N(CCC(=O)NNC(=O)c3ccccc3OC)C2=O)c1,"inconclusive: 25.1 µM [quencher, side channel, partial curve]",–
O=[N+]([O-])c1cccc2ccc(/C=C/c3cccc(Br)c3)nc12,"inconclusive: 11.2 µM [quencher, side channel, partial curve]",–
Cc1ccc(C(=O)C(c2ccccc2)N2Cc3ccccc3C2=N)cc1 (configuration not stated),–,inactive: -0.172%
O=C(Nc1cccc(Cl)c1)c1ccc(NCC2CCCO2)c([N+](=O)[O-])c1 (configuration not stated),"inconclusive: 7.94 µM [quencher, side channel, partial curve]",–
CC1(S(=O)(=O)O)CC(=O)c2ccccc2C1=O (configuration not stated),"inconclusive: 12.6 µM [inhibitor, partial curve]",–
O=C(O)c1cccc(N/N=C/c2cn(-c3ccccc3)nc2-c2cccs2)c1,"inconclusive: 20 µM [quencher, side channel, partial curve]",–
COc1cnc(-c2ccccn2)nc1Oc1c(C)cccc1C,"inconclusive: 20 µM [fluorescent, side channel, partial curve]",–
O=C(Oc1cccc(Nc2ncnc3ccccc23)c1)c1ccccc1Cl,"inconclusive: 22.4 µM [quencher, side channel, single point]",–
CNC(=S)N/N=C/c1c(C)nn(-c2ccccc2)c1Cl,"inconclusive: 39.8 µM [inhibitor, single point]",–
COc1ncc2ncc(=O)n(C3CC3)c2n1,–,inactive: -6.09%
CCOc1cc(CNc2ccc(OC)cc2)cc(Br)c1OCC(=O)NC(C)(C)C,"inconclusive: 7.94 µM [inhibitor, partial curve]",–
COc1ccc2c(c1)C=CC1(O2)N(CCO)c2ccccc2C1(C)C (configuration not stated),"inconclusive: 20 µM [fluorescent, side channel, partial curve]",–
CC(C)CCn1nnnc1C(c1ccccc1)N1CCC(C(N)=O)CC1 (configuration not stated),"inconclusive: 0.708 µM [inhibitor, full curve]",–
C#CCOCCOCCOCCNc1nc(N2CCN(C(=O)[C@H]([C@@H](C)CC)n3cc(CCCCN)nn3)CC2)nc(N2CCN(C(=O)[C@H](C)n3cc(CCC(=O)O)nn3)CC2)n1,"inconclusive: 22.4 µM [inhibitor, single point]",–

SMILES,Potency,"FP activity change, negative = inhibition"
COc1cc(Cl)c(C)cc1NC(=S)NN,"inconclusive: 35.5 µM [quencher, side channel, single point]",–
CCc1c(C)c2c(C)[nH]nc2oc1=O,"inconclusive: 0.794 µM [inhibitor, full curve]",–
O=S(=O)(Cc1cc(Oc2ccccc2)nc(-c2ccccc2)n1)c1ccccc1,"inconclusive: 10 µM [inhibitor, partial curve]",–
CCN(CC)S(=O)(=O)c1cc(NC(=O)Cn2cnc3ccccc3c2=O)ccc1C,–,inactive: 31.1%
CC(=O)NNC(=O)c1sc(=S)n2c1[nH]c(=O)c1sccc12,"inconclusive: 35.5 µM [quencher, side channel, single point]",–
Cc1ccc2c(c1)C=CC(C)(C)S2=O (configuration not stated),–,inactive: -3.55%
CCOC(=O)C1C(c2cc(OC)c(OC)c(OC)c2)NC(=S)NC1(O)C(F)(F)F (configuration not stated),"inconclusive: 0.631 µM [inhibitor, full curve, poor fit]",–
COc1ccc(-c2cc(C(=O)OCC(=O)N(C)C3CCS(=O)(=O)C3)c3ccccc3n2)cc1OC (configuration not stated),"inconclusive: 20 µM [quencher, side channel, partial curve]",–
COc1ccc(S(=O)(=O)Nc2ccc(-n3cccc3)cc2)cc1,"inconclusive: 12.6 µM [quencher, side channel, partial curve]",–
O=C(Nc1ccc(NC(=O)c2ccc([N+](=O)[O-])o2)cc1Cl)c1ccco1,"inconclusive: 25.1 µM [quencher, side channel, partial curve]",–
O=C(NCc1ccncc1)Nc1ccc(Cl)cc1Cl,–,inactive: 15.5%
CC(=O)N1CCN(c2ccc(NC(=O)c3ccc(Cl)c([N+](=O)[O-])c3)cc2)CC1,–,inactive: 12.1%
O=C1CC(c2ccccc2)CC(O)=C1C=NCc1ccc(Cl)c(Cl)c1 (configuration not stated),"inconclusive: 35.5 µM [fluorescent, side channel, single point]",–
CCCC(=O)OCCNc1cc(SCc2ccco2)c2nonc2c1[N+](=O)[O-],"inconclusive: 10 µM [quencher, side channel, partial curve]",–
O=C(c1ccc(-n2cccc2)cc1)N1CCN(Cc2ccccc2)CC1,"inconclusive: 25.1 µM [inhibitor, single point]",–
C=CCOc1ccc(/C=C\c2nc(O)c([N+](=O)[O-])c(=O)[nH]2)cc1OC,"inconclusive: 22.4 µM [quencher, side channel, partial curve]",–
c1ccc(-c2noc(CSc3nnnn3C3CCCCC3)n2)cc1,"inconclusive: 44.7 µM [inhibitor, partial curve, poor fit]",–
CCOC(=O)CC(=O)CSc1nc2c(sc(=S)n2-c2ccc(OCC)cc2)c(=O)[nH]1,"inconclusive: 35.5 µM [quencher, side channel, single point]",–
COc1cc(/C=C/C(=O)Nc2nnc(C(C)(C)C)s2)cc(OC)c1OC,"inconclusive: 39.8 µM [inhibitor, single point]",–
COc1c(C)cccc1C(=O)NC(=S)Nc1cccc2nsnc12,"inconclusive: 12.6 µM [quencher, side channel, partial curve]",–
CC(=O)NC(c1ccc(C(C)C)cc1)c1ccc2cccnc2c1O (configuration not stated),–,inactive: -12.4%

SMILES,Potency,"FP activity change, negative = inhibition"
O=C(N/N=C/c1cn(-c2ccccc2)nc1-c1cc2ccccc2o1)c1ccncc1,"inconclusive: 8.91 µM [quencher, side channel, partial curve]",–
O=C(O)c1cc(-c2ccc3c(c2)OCO3)nc2ccc(Br)cc12,"inconclusive: 28.2 µM [quencher, side channel, single point]",–
CC(C)Sc1oc(-c2ccco2)nc1S(=O)(=O)c1ccc(F)cc1,"inconclusive: 22.4 µM [quencher, side channel, partial curve]",–
O=c1cc(CSc2n[nH]c(-c3ccncc3)n2)nc2sccn12,"inconclusive: 22.4 µM [quencher, side channel, partial curve]",–
O=C1N=C2SCCN2C(=O)C1Cc1ccc(Cl)cc1 (configuration not stated),–,inactive: -6.42%
c1ccc(-c2n[nH]c(-c3ccccn3)n2)nc1,–,inactive: 21.3%
O=C(N/N=C/c1ccc(OCc2ccccc2)cc1)c1ccncc1,–,inactive: 15%
CCOc1cc(/C=C2\SC(=NC)N(C)C2=O)cc(Cl)c1OC(C)=O,"inconclusive: 25.1 µM [quencher, side channel, single point]",–
CCOC(=O)c1oc2ccc(Br)cc2c1NC(=O)CN1CCN(C)CC1,"inconclusive: 3.16 µM [inhibitor, full curve]",–
CCOc1cc(C(=O)Nc2ccc3c(c2)OCO3)ccc1OCCOc1ccccc1Cl,"inconclusive: 3.16 µM [quencher, side channel, full curve]",–
O=C(Cn1nc(-c2ccccc2Cl)ccc1=O)Nc1ccccc1-c1ccccc1,–,inactive: -0.183%
O=C(O)CN1C(=O)/C(=C/c2ccc(SCc3ccccc3)o2)SC1=S,"inconclusive: 22.4 µM [fluorescent, side channel, partial curve]",–
CC(=O)Nc1cc(C(=O)OCc2cccc([N+](=O)[O-])c2)ccc1C,"inconclusive: 15.8 µM [inhibitor, partial curve, poor fit]",–
Clc1ccc(-c2cc3ccccc3[nH]2)cc1,"inconclusive: 17.8 µM [quencher, side channel, partial curve]",–
CN(C)CCCN(C(=O)c1cccc(N2C(=O)CCC2=O)c1)c1nc2cc3c(cc2s1)OCO3,"inconclusive: 31.6 µM [inhibitor, partial curve]",–
COc1ccc(C2C(C(=O)c3cccs3)=C(O)C(=O)N2c2nnc(C)s2)cc1OC (configuration not stated),"inconclusive: 3.55 µM [inhibitor, single point]",–
COc1ccc(Cl)cc1Nc1nc(-c2sc(NC(=O)c3ccco3)nc2C)cs1,"inconclusive: 7.94 µM [quencher, side channel, full curve]",–
Cc1ccc(CN2CCC(N3CC(C)OC(C)C3)CC2)cc1 (configuration not stated),–,inactive: 6.16%
COc1ccc(/C=C/c2ccccc2)cc1C1C2C=CCCC2(C)C(=O)N1Cc1ccccc1 (configuration not stated),–,inactive: -10.1%
CCC(C)Nc1nc2ccccc2n2c(C)nnc12 (configuration not stated),"inconclusive: 28.2 µM [inhibitor, partial curve]",–
